# Laboratory results from PubChem BioAssay AID504333 (National Center for Advancing Translational Sciences (NCATS), 2011).
# Values joined by “and” are separate entries in the source; they are usually repeats but may differ in a detail not shown here. Equal entries are not always repeated. Among all 360,000 compounds or so, about 16,000 (4.4%) were called active. Inconclusive results, whose numbers are uncertain, are shown with a selection of clear calls. Calls come from the whole dose curve; as a rule, active = well fitted inhibition curve with a large enough effect; inconclusive = small, poorly fitted or top-dose-only effect; inactive = no such curve, though single readings can be large or run the other way. Potencies of inconclusive entries are doubtful fits and often do not repeat.
# Molecular target: Bromodomain adjacent to zinc finger domain protein 2B (Homo sapiens) (UniProt Q9UIF8)
# Assay: qHTS Assay for Inhibitors of BAZ2B; note: nearly all actives have a fitted effect of over 60% in size
# Settings: AlphaScreen BAZ2B-H3K14Ac peptide displacement; series mostly up to 114 µM
# How it was run: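 In this displacement format the biotinylated H3(5-23) peptide acetylated at Lys14 serves as ligand at 50 nM, with BAZ2B at 50 nM in PBS pH 7.4 containing 0.01% Tween-20. Donor and acceptor beads are 10 ug/mL final.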
# Potency is the fitted concentration of half-maximal effect; tags give direction and shape of the fitted curve.
# UniProt Q9UIF8, sequence (Q9UIF8 whole entry, looked up, the tested form may be a part): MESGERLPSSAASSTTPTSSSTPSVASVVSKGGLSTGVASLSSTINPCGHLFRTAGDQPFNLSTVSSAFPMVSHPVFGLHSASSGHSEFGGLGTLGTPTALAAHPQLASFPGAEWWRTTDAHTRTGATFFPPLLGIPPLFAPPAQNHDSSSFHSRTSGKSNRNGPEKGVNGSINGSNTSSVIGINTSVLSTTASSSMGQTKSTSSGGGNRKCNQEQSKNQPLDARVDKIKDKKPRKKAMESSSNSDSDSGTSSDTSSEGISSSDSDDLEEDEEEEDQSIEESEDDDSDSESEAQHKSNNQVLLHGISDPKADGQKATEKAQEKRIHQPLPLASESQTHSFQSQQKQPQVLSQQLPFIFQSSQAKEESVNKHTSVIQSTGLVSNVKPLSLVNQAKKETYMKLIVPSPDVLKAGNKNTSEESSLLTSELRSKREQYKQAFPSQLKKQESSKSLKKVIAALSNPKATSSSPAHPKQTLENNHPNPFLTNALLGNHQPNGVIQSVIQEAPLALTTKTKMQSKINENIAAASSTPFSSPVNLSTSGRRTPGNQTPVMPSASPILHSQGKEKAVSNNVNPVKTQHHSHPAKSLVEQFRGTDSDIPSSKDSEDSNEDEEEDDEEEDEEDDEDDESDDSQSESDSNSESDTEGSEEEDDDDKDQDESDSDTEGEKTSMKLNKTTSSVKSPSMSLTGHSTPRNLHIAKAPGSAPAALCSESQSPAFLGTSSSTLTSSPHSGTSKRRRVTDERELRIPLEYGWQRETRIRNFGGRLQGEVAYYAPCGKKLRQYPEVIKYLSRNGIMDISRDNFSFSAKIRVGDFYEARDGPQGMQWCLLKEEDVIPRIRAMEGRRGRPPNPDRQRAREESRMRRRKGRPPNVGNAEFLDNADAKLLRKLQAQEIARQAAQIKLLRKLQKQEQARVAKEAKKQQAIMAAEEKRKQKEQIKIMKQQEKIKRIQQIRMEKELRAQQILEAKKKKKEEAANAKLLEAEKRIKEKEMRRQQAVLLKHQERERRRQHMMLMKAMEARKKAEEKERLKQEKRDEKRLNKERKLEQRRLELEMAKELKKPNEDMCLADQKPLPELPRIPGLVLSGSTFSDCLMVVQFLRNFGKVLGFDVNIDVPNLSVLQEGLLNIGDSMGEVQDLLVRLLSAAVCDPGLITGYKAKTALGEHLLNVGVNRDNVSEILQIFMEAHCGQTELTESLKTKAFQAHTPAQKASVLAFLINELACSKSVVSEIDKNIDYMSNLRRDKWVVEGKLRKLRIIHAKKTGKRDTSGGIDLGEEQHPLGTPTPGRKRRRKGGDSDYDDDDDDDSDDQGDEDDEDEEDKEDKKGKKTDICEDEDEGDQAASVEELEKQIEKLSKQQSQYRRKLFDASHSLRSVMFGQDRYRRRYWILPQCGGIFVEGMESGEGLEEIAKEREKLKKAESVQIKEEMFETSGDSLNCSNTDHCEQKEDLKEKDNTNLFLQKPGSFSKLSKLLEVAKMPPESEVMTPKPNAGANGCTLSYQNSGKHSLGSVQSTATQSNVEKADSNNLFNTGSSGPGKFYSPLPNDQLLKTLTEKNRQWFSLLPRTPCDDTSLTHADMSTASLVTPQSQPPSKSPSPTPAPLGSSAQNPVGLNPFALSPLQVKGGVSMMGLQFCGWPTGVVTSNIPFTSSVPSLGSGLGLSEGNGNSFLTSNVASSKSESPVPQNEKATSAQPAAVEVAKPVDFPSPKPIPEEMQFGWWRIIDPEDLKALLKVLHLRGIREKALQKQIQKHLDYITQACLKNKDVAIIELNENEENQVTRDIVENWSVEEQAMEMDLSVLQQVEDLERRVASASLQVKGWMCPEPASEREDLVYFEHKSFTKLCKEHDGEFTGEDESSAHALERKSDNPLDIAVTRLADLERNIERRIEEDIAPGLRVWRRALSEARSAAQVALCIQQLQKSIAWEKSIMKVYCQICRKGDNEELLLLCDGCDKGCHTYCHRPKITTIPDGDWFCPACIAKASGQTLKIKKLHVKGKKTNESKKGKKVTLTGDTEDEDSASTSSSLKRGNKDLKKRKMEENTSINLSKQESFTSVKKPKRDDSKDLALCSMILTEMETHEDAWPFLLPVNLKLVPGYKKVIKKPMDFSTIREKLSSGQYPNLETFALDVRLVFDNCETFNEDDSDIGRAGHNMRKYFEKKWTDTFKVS
row,SMILES,Potency
1,Cc1ccc(NC(=S)N/N=C/c2c(C)[nH]c3ccccc23)cc1,active: 44.7 µM
2,COc1ccc(C(=O)CSc2n[nH]c(=O)n2Cc2ccco2)cc1,"inconclusive: 79.4 µM [inhibitor, single point]"
3,O=S(=O)(NCCc1ccncc1)c1cc(Br)ccc1F,inactive
4,COc1ccc(C(=O)O)c(OC)n1,"inconclusive: 0.708 µM [inhibitor, full curve, poor fit]"
5,CNC(=O)c1csc(Cc2c(Cl)sc3ccc(Cl)cc23)n1,"inconclusive: 79.4 µM [inhibitor, single point]"
6,CCN(CC)c1ccc(S(=O)(=O)N2CCOCC2)cc1NC(=O)CNCc1ccccc1,active: 50.1 µM
7,CCOc1cc(NC(=S)NCC2CCCO2)c(OCC)cc1NC(=O)c1ccc(OC)cc1 (configuration not stated),"inconclusive: 79.4 µM [inhibitor, partial curve]"
8,O=C(CCN1CCN(CCO)CC1)Nc1ccc(C2CCCC2)cc1,"inconclusive: 79.4 µM [inhibitor, single point]"
9,CCOC(=O)C1CCCN(Cc2cc(OC)c(O)c(OC)c2)C1 (configuration not stated),"inconclusive: 89.1 µM [inhibitor, single point]"
10,Cc1ccc(N2CC(C(=O)NCc3ccccn3)CC2=O)cc1 (configuration not stated),inactive
11,O=C(c1ccco1)N1CCN(c2c([N+](=O)[O-])nn(-c3ccc(Cl)cc3)[n+]2[O-])CC1,"inconclusive: 31.6 µM [inhibitor, partial curve]"
12,O=C(NCCc1ccc(Cl)cc1)c1nnc(Cc2ccc(Cl)cc2Cl)o1,inactive
13,CCC(c1nnnn1Cc1ccco1)N1CCN(c2cc(Cl)ccc2C)CC1 (configuration not stated),"inconclusive: 89.1 µM [inhibitor, single point]"
14,Cc1cccc2nc(-c3ccco3)c(Nc3ccc4c(c3)OCCO4)n12,active: 35.5 µM
15,CCc1ccccc1NC(=O)CNC(=O)CCc1nc2sc3c(c2c(=O)[nH]1)CCCC3,active: 50.1 µM
16,CC(=O)Nc1ccc(S(=O)(=O)NC2(C(F)(F)F)NC(=O)N(C3CCCC3)C2=O)cc1 (configuration not stated),inactive
17,COc1ccc(NC(=S)N2CCN(C(c3ccccc3)c3ccccc3)CC2)c(OC)c1,"inconclusive: 3.98 µM [inhibitor, full curve]"
18,CN(C)C(=O)c1cnc(Sc2ncc(C(F)(F)F)cc2Cl)n1C,inactive
19,COc1cc(/C=C2\SC(=Nc3ccccc3)N(Cc3ccco3)C2=O)ccc1OC(C)C(=O)O (configuration not stated),"inconclusive: 50.1 µM [inhibitor, partial curve]"
20,CN1CCN(C(=S)NC(=O)c2ccc(-c3ccccc3)cc2)CC1,"inconclusive: 35.5 µM [inhibitor, full curve]"
21,CN(C)CC(=O)N1c2ccccc2CCc2ccc(NC(=O)c3ccc(N)cc3)cc21,"inconclusive: 89.1 µM [inhibitor, single point]"
22,C=CCn1c(SCC(=O)C(C)(C)C)nnc1-c1ccccn1,"inconclusive: 89.1 µM [inhibitor, single point]"
23,Cc1ccccc1S(=O)(=O)NC1OC(=O)C(Oc2ccccc2)=C1Br (configuration not stated),"inconclusive: 56.2 µM [inhibitor, single point]"
24,CCN(C(=O)CCS(=O)(=O)c1cc2c(cc1C)NC(=O)CO2)c1cccc(C)c1,inactive

row,SMILES,Potency
1,CCn1c(C)c(C)c2cc(C(=O)N3CCN(c4ccccc4)CC3)ccc21,active: 39.8 µM and active: 28.2 µM
2,Cc1n[nH]c(C)c1S(=O)(=O)N1CCCC(C(=O)N2CCN(c3ccc(Cl)cc3)CC2)C1 (configuration not stated),"inconclusive: 56.2 µM [inhibitor, partial curve, poor fit]"
3,O=C(CNC(=O)c1ccc(Cl)cc1)Nc1ccc(S(=O)(=O)Nc2ncccn2)cc1,"inconclusive: 89.1 µM [inhibitor, single point]"
4,COc1ccccc1Cc1nc2ccccc2nc1SCC(=O)Nc1c(C)cccc1C,inactive
5,O=C(CCc1nc2ccccc2s1)NC1CCOC1=O (configuration not stated),inactive
6,CCOc1ccc(S(=O)(=O)N/N=C(\C)Cc2ccc(OC)cc2)cc1,"inconclusive: 79.4 µM [inhibitor, single point]"
7,CN(CC(=O)Nc1ccc(N2CCOCC2)cc1)CC(=O)Nc1ccc(C(F)(F)F)cc1,"inconclusive: 39.8 µM [inhibitor, partial curve]"
8,CCN(CC)S(=O)(=O)c1ccc(Cl)c(NC(=O)c2ccc(C#N)cc2)c1,"inconclusive: 100 µM [inhibitor, single point]"
9,CCCNC(=S)N1CCN(Cc2ccc3c(c2)OCO3)CC1,"inconclusive: 56.2 µM [inhibitor, partial curve]"
10,CC(C)c1c(C(=O)N/N=C/c2ccccc2C(=O)O)nnn1-c1nonc1N,"inconclusive: 89.1 µM [inhibitor, single point]"
11,COc1ccccc1C(=O)NCC(c1ccc(N(C)C)cc1)N1CCc2ccccc21 (configuration not stated),active: 10 µM
12,COc1cc(OC)cc(-n2c(=O)c3ccccc3n(Cc3ccccc3C#N)c2=O)c1,"inconclusive: 89.1 µM [inhibitor, single point]"
13,COc1cc2c(=O)n(Cc3ccco3)c(=O)n(CC(=O)c3ccc(Br)cc3)c2cc1OC,inactive
14,Cn1cc(C(N)=O)c2ccccc21,"inconclusive: 89.1 µM [inhibitor, single point]"
15,COC(=O)c1ccccc1NC(=S)NC(=O)c1ccccc1,"inconclusive: 56.2 µM [inhibitor, partial curve]"
16,Cc1ccc(S(=O)(=O)N2CCOCC2)cc1C(=O)Nc1ccc(N2CCCCCC2)cc1,active: 39.8 µM
17,CCOC(=O)c1cnc2ccc(OCC)cc2c1N1CCN(c2ccccc2)CC1,"inconclusive: 28.2 µM [inhibitor, full curve]"
18,O=C(c1ccco1)N1CCN(S(=O)(=O)c2ccc3c(c2)CCN3C(=O)C2CC2)CC1,"inconclusive: 79.4 µM [inhibitor, single point]"
19,COCCCN(C(=S)NC(=O)c1ccc(C(C)(C)C)cc1)c1c(N)n(Cc2ccccc2)c(=O)[nH]c1=O,inactive
20,C=C(C)Cn1c(N2CCN(c3ccc(OC)cc3)CC2)nc2c1c(=O)n(C)c(=O)n2C,"inconclusive: 39.8 µM [inhibitor, partial curve]"
21,Cc1ccccc1/C=C1\C(=O)Nc2ccc(F)cc21,"inconclusive: 35.5 µM [inhibitor, partial curve]"
22,COc1ccc(N2CCN(C(=O)c3cnc(N4CCOCC4)c4ccccc34)CC2)cc1,"inconclusive: 79.4 µM [inhibitor, single point]"
23,N#Cc1ccccc1-n1c(N)c(C(=O)N2CCCC2)sc1=S,"inconclusive: 89.1 µM [inhibitor, single point]"
24,CC(C)c1ccc(Nc2nc(CC(=O)O)cs2)cc1,inactive

row,SMILES,Potency
1,COc1ccc(N=Nc2n(C)c3ccccc3[n+]2C)cc1,active: 39.8 µM
2,COc1ccc(-n2c(SCc3ccc([N+](=O)[O-])cc3)nnc2-c2ccc(C)cc2)cc1,"inconclusive: 12.6 µM [inhibitor, partial curve]"
3,CCOC(=O)c1cc(C)n(CC2CCC(C(=O)Nc3cccc(C(C)=O)c3)CC2)c1C (configuration not stated),inactive
4,CCC(C(=O)O)N1C(=O)/C(=C/C(C)=C/c2ccccc2)SC1=S (configuration not stated),"inconclusive: 44.7 µM [inhibitor, partial curve]"
5,O=C(O)C1C2C=CC(C2)C1C(=O)Nc1ccc(Cl)c(Cl)c1 (configuration not stated),inactive
6,O=S(=O)(c1ccccc1)c1nc(-c2ccco2)oc1Nc1ccccc1,"inconclusive: 44.7 µM [inhibitor, full curve, poor fit]"
7,Cc1cc(/C=N/n2cnnc2)c(C)n1-c1ccc(OCc2ccc(F)cc2)cc1,"inconclusive: 50.1 µM [inhibitor, partial curve]"
8,Nc1nnnn1/N=C/c1ccc(F)cc1,inactive
9,O=C(NCc1cccc(Cl)c1)C1CCCN(c2nn3cc(-c4ccc(F)cc4)nc3s2)C1 (configuration not stated),inactive
10,S=c1[nH]nc(-c2ccco2)n1/N=C/C=C/c1ccccc1,inactive
11,Cc1cc(C(=O)N/N=C2\CCCc3ccccc32)c(C)o1,inactive
12,Cc1cc(C(=O)COC(=O)CC2Sc3ccccc3NC2=O)c(C)n1-c1ccc(Br)cc1 (configuration not stated),inactive
13,Fc1cccc(CN2CCN3CCCC3C2C2CCCCC2)c1 (configuration not stated),"inconclusive: 79.4 µM [inhibitor, single point]"
14,Cc1cccc(N2CCN(Cc3nnc(-c4cccc(Br)c4)o3)CC2)c1C,inactive
15,COCCNC(=S)N1CCC(c2nc(-c3ccc(N(C)C)cc3)no2)CC1,active: 56.2 µM
16,O=C(N/N=C1\C2CN3CCN(C2)CC1(c1ccccc1)C3)Nc1ccccc1,"inconclusive: 50.1 µM [inhibitor, partial curve]"
17,Cc1ccc(CNS(=O)(=O)c2c(C)nc3sc(C)cn3c2=O)cc1,inactive
18,Cc1cc(C(=O)CSc2nnc(Nc3ccccc3)s2)c(C)n1CC1CCCO1 (configuration not stated),"inconclusive: 44.7 µM [inhibitor, partial curve]"
19,COc1cccc(Oc2ccc(N)cc2)c1,"inconclusive: 79.4 µM [inhibitor, single point]"
20,Cc1ccc(Oc2ccc(N)cc2)cc1,active: 31.6 µM
21,O=C(c1ccc(Br)cc1)N(Cc1ccco1)c1ccccn1,"inconclusive: 89.1 µM [inhibitor, single point]"
22,COc1ccc(N2CCN(c3ncccc3C#N)CC2)cc1,"inconclusive: 79.4 µM [inhibitor, single point]"
23,CCOc1ccc(NC(=O)[C@@H](NC(=O)c2ccco2)C(C)C)cc1,inactive
24,Cc1ccc(OCCN2CCN(c3nc(NCc4ccco4)c4ccccc4n3)CC2)cc1,"inconclusive: 79.4 µM [inhibitor, single point]"
